Values of other authors as cited in article PMC11006913.
Some of the results follow.

Tests used:
Details in all cases: PBM; conditions not shown; double strand, one strand shown; scale: upbm affinity estimate (log intensity, higher = more binding, comparable within an allelic series)
ARX (Homo sapiens) = ARX (Homo sapiens) (UniProt Q96QS3)
ARX L343Q (Homo sapiens) = ARX L343Q (Homo sapiens) (UniProt Q96QS3)
ARX P353L (Homo sapiens) = ARX P353L (Homo sapiens) (UniProt Q96QS3)
ARX P353R (Homo sapiens) = ARX P353R (Homo sapiens) (UniProt Q96QS3)
ARX R332H (Homo sapiens) = ARX R332H (Homo sapiens) (UniProt Q96QS3)
ARX T333N (Homo sapiens) = ARX T333N (Homo sapiens) (UniProt Q96QS3)

Sequence | binding signal (ARX (Homo sapiens)) | binding signal (ARX L343Q (Homo sapiens)) | binding signal (ARX P353L (Homo sapiens)) | binding signal (ARX P353R (Homo sapiens)) | binding signal (ARX R332H (Homo sapiens)) | binding signal (ARX T333N (Homo sapiens))
CAATAATA [8-mer CAATAATA] | 11.8 | 10.9 | 11.4 | 10.8 | 11 | 11.4
CCTGCAGG [8-mer CCTGCAGG] | 10.3 | 10.3 | 10.3 | 10.4 | 10.3 | 10.3
CTTCCGCC [8-mer CTTCCGCC] | 10.1 | 10.2 | 10.2 | 10.2 | 10.2 | 10.3
GGCTCCCC [8-mer GGCTCCCC] | 10.1 | 10 | 10.1 | 10 | 10 | 10.1
GCAACCGC [8-mer GCAACCGC] | 10.1 | 10.2 | 10.2 | 10.2 | 10.2 | 10.3
GCCGGCGC [8-mer GCCGGCGC] | 10.1 | 9.91 | 9.97 | 9.85 | 9.9 | 9.97
CGAAGGGC [8-mer CGAAGGGC] | 10.1 | 10.1 | 10.1 | 10.2 | 10.2 | 10.1
CCCCCAGC [8-mer CCCCCAGC] | 9.92 | 9.85 | 9.93 | 9.77 | 9.82 | 9.99
CGGGTTCC [8-mer CGGGTTCC] | 10.1 | 10.1 | 10.1 | 10.1 | 10.1 | 10.2
CAGGGGGG [8-mer CAGGGGGG] | 10.1 | 10.1 | 10.2 | 9.91 | 9.93 | 10.2
CAGTCGGG [8-mer CAGTCGGG] | 10.2 | 10.2 | 10.2 | 10.2 | 10.2 | 10.3
CCGCCCCG [8-mer CCGCCCCG] | 9.96 | 10.1 | 9.94 | 10 | 10.2 | 10.3
CACCGCCG [8-mer CACCGCCG] | 10.2 | 10.2 | 10.2 | 10.1 | 10.1 | 10.2
